# “And” between values parts separate entries of the source, which are not always exact repeats. Equal entries are not always repeated. The whole screen tested about 130,000 compounds, of which about 550 (0.42%) were called active. The inconclusive results got no clear call from the source; some entries with a clear call stand among them for comparison. Calls follow the shape of the dose curve; as a rule, active = well fitted inhibition curve with a large enough effect; inconclusive = small, poorly fitted or top-dose-only effect, or effect the other way; inactive = flat fitted curve, though single readings scatter. A potency beside an inconclusive call is a rough fit, not a confirmed value.
# Test: qHTS Assay for Inhibitors of the ERK Signaling Pathway using a Homogeneous Screening Assay; Stimulation with EGF; also: nearly all actives have a fitted effect of over 55% in size;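 as to activity change, negative = inhibition: plate controls were stimulated vehicle wells for no effect and unstimulated vehicle basal for full effect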
# Details: HEK293-V1b, EGF-stimulated phospho-ERK AlphaScreen; activity change, negative = inhibition: at the top concentration
# How it was run: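 Readout: AlphaScreen signal for phosphorylated ERK in lysed HEK293 cells stably expressing V1b. Stimulus 25 nM EGF, 5 min, following 30 min compound exposure. Data scaled to DMSO basal and full EGF activation.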
# Potency is read from the fitted curve at half-maximal effect; tags tell the direction and shape of the fitted curve.
SMILES,"activity change, negative = inhibition",Potency
Cc1cccc2cc(/C=N/NC(=O)c3ccncc3)c(Cl)nc12,inactive: -3.04% [at 57.5 µM],–
CNCCCC12CCC(c3ccccc31)c1ccccc12,–,"inconclusive: 3.98 µM [inhibitor, single point]"
O=C1C(Cl)=C(N2CCCCC2)C(=O)N1Cc1ccccc1,–,"inconclusive: 15.8 µM [activator, partial curve]"
Cc1c(/C=N/NC(N)=O)c2ccccn2c1C(=O)c1ccc(F)cc1,–,"inconclusive: 25.1 µM [inhibitor, partial curve]"
Clc1ccc(Nc2ccc(NCc3ccccc3)nn2)cc1,–,"inconclusive: 31.6 µM [inhibitor, single point]"
Cc1coc2c1C(=O)C(=O)c1c-2ccc2c1CCCC2(C)C,–,"inconclusive: 39.8 µM [inhibitor, single point] and inconclusive: 10 µM [inhibitor, partial curve]"
CC(=O)N[C@@H](C(=O)O)C(C)(C)SN=O,inactive: 2.95%,–
Cn1c(N)c(C(=O)COC(=O)c2cc(C3CC3)nc3ccccc23)c(=O)n(C)c1=O,–,"inconclusive: 22.4 µM [inhibitor, single point]"
CC(C)(CNC(=S)NCCc1ccccc1)CNC(=S)NCCc1ccccc1,–,"inconclusive: 35.5 µM [inhibitor, single point]"
C(=N\Nc1nncc2ccccc12)/c1ccccc1,–,"inconclusive: 39.8 µM [inhibitor, single point]"
CCOC(=O)c1c(C)c(/C=N/Nc2ccccc2)n(C)c1C,–,"inconclusive: 14.1 µM [inhibitor, partial curve]"
COc1ccccc1NS(=O)(=O)c1cccc(NC(=O)Nc2ccccc2)c1,–,"inconclusive: 31.6 µM [inhibitor, single point]"
CCN(CC)c1ccc(N=Cc2cc(Br)ccc2O)cc1,–,"inconclusive: 17.8 µM [inhibitor, partial curve]"
O=C(/C=N/NC(=O)c1ccccc1Br)c1ccccc1,inactive: -11.8%,–
Cn1cccc1/C=C1\SC(=S)N(Nc2ccccc2)C1=O,–,"inconclusive: 20 µM [inhibitor, single point]"
Clc1ccc2c(c1)C(N1CCNCC1)Cc1ccccc1S2 (configuration not stated),–,"inconclusive: 39.8 µM [inhibitor, single point]"
CN(C)c1nc(-c2cccs2)cc(C(F)(F)F)c1C#N,–,"inconclusive: 20 µM [activator, single point]"
Cc1cc(/C=N/Nc2nc(N)ncc2[N+](=O)[O-])c(C)n1-c1ccccc1F,–,"inconclusive: 15.8 µM [inhibitor, partial curve]"
O=C(N/N=C/c1ccccc1C(=O)O)c1ccc(COc2cccc3cccnc23)cc1,inactive: 0.0262%,–
COc1cc(NC(c2ccccc2)c2ccccc2)cc(OC)c1OC,–,"inconclusive: 15.8 µM [inhibitor, partial curve]"
Cc1cccc(Nc2nc(N)c([N+](=O)[O-])c(NCc3ccco3)n2)c1,–,"inconclusive: 22.4 µM [inhibitor, single point]"
Cc1ccc(SC[C@H](CC(C)C)N2CCN(CCc3ccccc3)CCC2=O)cc1,–,"inconclusive: 35.5 µM [inhibitor, single point]"
COCCN1CCC(CNCc2cn(-c3cc(C)ccc3C)nc2-c2ccccc2)C1 (configuration not stated),–,"inconclusive: 126 µM [activator, partial curve, poor fit]"
N#C/C(=C/c1ccc(N2CCOCC2)o1)c1nc2ccccc2[nH]1,–,"inconclusive: 17.8 µM [inhibitor, partial curve]"

SMILES,"activity change, negative = inhibition",Potency
CCCCCCN1C=C/C(=C\C=C(C#N)C#N)c2ccccc21,–,active: 14.1 µM
COc1ccc(NS(=O)(=O)c2cc(NC(=O)c3cccs3)ccc2N2CCOCC2)cc1,–,"inconclusive: 17.8 µM [inhibitor, partial curve]"
c1ccc2oc(-c3[nH]ncc3CN3CCSCC3)cc2c1,–,"inconclusive: 39.8 µM [inhibitor, single point]"
COc1ccc(NC(=O)N2CC3(CCN(C(=O)c4c(C)noc4C)CC3)C2)cc1,inactive: -2.2%,–
Clc1cccc(N/N=C/c2ccc(N3CCOCC3)s2)c1,–,"inconclusive: 15.8 µM [inhibitor, single point]"
CN(C)c1ncc2nc(CCc3ccccc3)c(=O)n(C[C@H]3CCCO3)c2n1,inactive: -6.71%,–
CNc1nnc(-c2ccc(N(C)C)cc2)s1,inactive: -7.78%,–
Cc1ccnc(NC(=O)c2ccc3c(c2)S(=O)(=O)c2ccccc2C3=O)c1,–,"inconclusive: 39.8 µM [inhibitor, partial curve]"
Cc1ccc(SCC(=O)Nc2ccc(F)cc2[N+](=O)[O-])cc1C,–,"inconclusive: 17.8 µM [inhibitor, single point]"
CCCc1cnc(N2CCN(S(=O)(=O)c3cccs3)CC2)nc1,inactive: -0.587% [at 57.5 µM],–
CCOc1ccc2c(c1)C(c1ccc(C)cc1)=NNC(c1ccc(C)cc1)=N2,–,"inconclusive: 31.6 µM [inhibitor, partial curve]"
CN(C)c1ccc(-c2nc(N3CCNCC3)c3ccccc3n2)cc1,inactive: 10.7%,–
CNCC[C@@H](Oc1ccc(C(F)(F)F)cc1)c1ccccc1,inactive: 3.89%,–
Fc1cccc(CN2CCN(c3nc4nonc4nc3NC3CC3)CC2)c1,inactive: -5.94%,–
COc1ccc2[nH]cc(CCNc3nc(-c4ccc(C(=O)N(C)C)cc4)nc4ccccc34)c2c1,inactive: 12.1%,–
CCCN1C(=O)/C(=C/c2ccc(OCC(=O)OCC)cc2)NC1=S,–,active: 31.6 µM
CN(C)CCNC(=O)/C(=N\O)c1ccccn1,inactive: -4.16%,–
Cc1ccc(NC(=O)c2cc([N+](=O)[O-])ccc2N2CCCC2)cc1,inactive: 5.14%,–
CC(C)OC(=O)c1cccc(-c2ccc(C=O)o2)c1,inactive: 8.61%,–
CCCCCCOc1ccc(C(=O)NCCCn2ccnc2)cc1,–,"inconclusive: 0.891 µM [inhibitor, single point]"
O=C1C=CC(=O)N1CCCCCCN1C(=O)C=CC1=O,–,"inconclusive: 39.8 µM [inhibitor, single point]"
c1ccc(-c2nc(-c3cccc4ccccc34)c(Nc3ccc4ccccc4c3)o2)cc1,inactive: -0.442%,–
BrC(/C=N/N1CCN(Cc2ccccc2)CC1)=C/c1ccccc1,–,"inconclusive: 22.4 µM [inhibitor, single point]"
COc1cccc(NC(=O)Nc2ccc(C(C)(C)C)cc2)c1,–,"inconclusive: 39.8 µM [inhibitor, single point]"

SMILES,"activity change, negative = inhibition",Potency
CCOC(=O)c1cnc2ccc(C)cc2c1NCCO,–,"inconclusive: 39.8 µM [inhibitor, single point]"
O=C1c2cccc(OCC(=O)N3CCCc4ccccc43)c2CCN1Cc1ccc(F)cc1,–,"inconclusive: 31.6 µM [inhibitor, single point]"
Oc1ccc(Oc2ncc(Cl)cc2Cl)cc1,–,"inconclusive: 14.1 µM [activator, partial curve]"
Cc1nc2cnc(N3CCNCC3)nc2n(Cc2ccc(F)cc2)c1=O,–,"inconclusive: 14.1 µM [inhibitor, partial curve, poor fit]"
COc1ccc(N/C=C(\C2OC(=O)c3ccccc32)[N+](=O)[O-])cc1 (configuration not stated),–,"inconclusive: 39.8 µM [inhibitor, single point]"
COc1cc(C(=O)O)ccc1O,inactive: 1.44%,–
O=C(Nc1cccnc1Cl)c1ccc2c(Cl)c3c(nc2c1)CCC3,–,"inconclusive: 4.47 µM [inhibitor, full curve, poor fit]"
CCCCSc1nc2c(cnn2-c2ccccc2)c(=O)n1N,inactive: -4.94%,–
CC(C(=O)O)C1CCC2C3CC=C4CC(O)CC[C@@]4(C)C3CC[C@]12C (some centres not stated),inactive: 27%,–
CC(=O)OC1CC(OC(C)=O)[C@]2(C)C(CC(OC(C)=O)[C@]3(C)C2CC[C@@]2(C)C(c4ccoc4)OC(=O)C4O[C@]432)C1(C)C (some centres not stated),inactive: -6.32%,–
C=C1C2CC[C@]3(CCC4[C@@]5(C)CCC[C@@]4(CN(CCO)C5)[C@@H]3C2)[C@@H]1O (some centres not stated),inactive: -12.5%,–
NNC(=O)C(=O)Nc1ccc(O)cc1,–,"inconclusive: 0.1 µM [activator, full curve, poor fit]"
CCO[C@@H]1OC(C(=O)O)=C[C@H](C2CC2)[C@H]1CCCO,–,"inconclusive: 8.91 µM [inhibitor, single point]"
Cc1cccc(CNc2ncnc3ccc(-c4ccc5c(c4)OCO5)cc23)c1,–,"inconclusive: 28.2 µM [inhibitor, single point]"
Cc1cc(C)c(C)c(OCCCOc2cccc3cccnc23)c1,–,"inconclusive: 31.6 µM [inhibitor, partial curve]"
Cc1c(C(=O)Nc2ccc3c(c2)OCCO3)sc2nc(-c3ccccc3)cn12,–,"inconclusive: 7.08 µM [inhibitor, partial curve]"
CN1CCN(CC(=O)Nc2c(C#N)cnn2-c2ccccc2)CC1,inactive: 7.5% [at 57.5 µM],–
CCCCC[C@H](O)/C=C/[C@H]1[C@H](O)CC(=O)[C@@H]1C/C=C\CCCC(=O)O,–,"inconclusive: 31.6 µM [inhibitor, partial curve, poor fit]"
COc1cc(C=C2C(=O)c3ccccc3C2=O)cc(OC)c1,inactive: -3.08% [at 57.5 µM],–
C=CCNC(=S)Nc1cccc(N)c1,–,"inconclusive: 39.8 µM [inhibitor, single point]"
COc1ccc(Nc2ccc([N+](=O)[O-])cc2[N+](=O)[O-])cc1,–,"inconclusive: 25.1 µM [inhibitor, partial curve]"
CCOC(=O)c1sc(Nc2nc3cc4c(cc3s2)OCO4)cc1C,–,"inconclusive: 31.6 µM [inhibitor, single point]"
CC1=CC(=O)C(C(C)C)=C/C1=N/OS(=O)(=O)c1ccccc1,–,"inconclusive: 35.5 µM [inhibitor, single point]"
CC1(C)O[C@H]2C[C@@H]3[C@H]4CCC5=CC(=O)CC[C@@]5(C)[C@]4(F)[C@@H](O)C[C@@]3(C)[C@@]2(C(=O)CCl)O1,inactive: -3.38% [at 25.7 µM],–
